Test results: paper PMC6919601, “Identification of Plasmodium dipeptidyl aminopeptidase allosteric inhibitors by high throughput screening” (PLoS ONE, 2019)
In all, about 110,000 compounds went through this assay and about 230 (0.21%) showed an effect of 50% or more. This is one part of the list.

Molecular target: DPAP1 (Plasmodium falciparum, UniProt Q8IIJ9)
Assay: primary screen, percent inhibition; read by cleavage of a fluorogenic dipeptide substrate; higher = more effect of the substance
Set-up: species or system P. falciparum D10 trophozoite lysates; single well
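Further: 30 min substrate incubation versus DMSO and 10 µM JCP410 controls.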

Chain of DPAP1 (Q8IIJ9 whole entry, looked up): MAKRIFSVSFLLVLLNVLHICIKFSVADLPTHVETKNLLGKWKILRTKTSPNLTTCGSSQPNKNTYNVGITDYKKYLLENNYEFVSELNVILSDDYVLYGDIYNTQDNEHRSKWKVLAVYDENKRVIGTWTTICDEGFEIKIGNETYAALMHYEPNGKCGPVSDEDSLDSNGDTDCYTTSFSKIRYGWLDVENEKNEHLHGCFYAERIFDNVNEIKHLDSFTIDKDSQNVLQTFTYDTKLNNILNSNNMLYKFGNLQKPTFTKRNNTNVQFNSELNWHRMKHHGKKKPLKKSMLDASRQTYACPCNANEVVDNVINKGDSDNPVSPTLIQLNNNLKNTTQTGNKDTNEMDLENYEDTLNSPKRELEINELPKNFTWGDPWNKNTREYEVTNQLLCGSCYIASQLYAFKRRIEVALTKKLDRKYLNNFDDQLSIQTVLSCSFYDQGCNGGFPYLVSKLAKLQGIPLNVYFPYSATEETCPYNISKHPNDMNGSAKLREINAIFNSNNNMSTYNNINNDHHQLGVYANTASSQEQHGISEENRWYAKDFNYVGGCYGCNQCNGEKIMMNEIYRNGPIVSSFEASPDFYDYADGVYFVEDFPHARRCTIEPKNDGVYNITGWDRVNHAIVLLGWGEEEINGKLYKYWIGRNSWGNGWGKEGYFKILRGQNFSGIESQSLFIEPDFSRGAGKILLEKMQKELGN

Compound	% Inhibition @ 10 uM [%]
O=C(O)C1CSC(C(=O)O)CC(c2ccccc2)=N1 (centres unmarked)	-1.8
CCc1cccc(C)c1NC(=O)Cc1ccc(OC)cc1	-10.3
CCN1CCC(N2CCC(C(N)=O)CC2)CC1	-7.35
COC(=O)c1sccc1NC(=O)C1CCCN(c2ncnc3c2nc2n3CCCCC2)C1 (centres unmarked)	8.64
CCc1ccc(NC2=CC(=O)CC(c3ccc(OC)c(OC)c3)C2)cc1 (centres unmarked)	-0.25
N#CC1=C(N)Oc2c(ccc3ccccc23)C1c1cccc(F)c1 (centres unmarked)	-2.21
COc1ccc(CCn2c(C)nc(=O)c(-c3ccccc3)c2C)cc1OC	-2.6
CCN(CC)C(=O)C1CCCN(Cc2cccc(C)c2)C1 (centres unmarked)	-1.92
c1ccc(CN2CCN(Cc3ccccc3)CC2)cc1	6.02
CCOC(=O)c1c(C)c(C(=O)NC2CC(C)CC(C)(C)C2)c(C)n1CC (centres unmarked)	-1.88
CCn1c(CCCNC(=O)c2cc(OC)c(OC)c(OC)c2)nc2ccccc21	-2.01
CCC(Sc1nc2c(sc3ccccc32)c(=O)n1CCCOC)C(=O)NCc1ccco1 (centres unmarked)	6.65
O=C(CCn1ccc2cc(S(=O)(=O)N3CCCCC3)ccc21)N1CCc2ccccc2C1	2.31
CCOC(=O)N1CCN(c2c(NCCN(C)C)c(=O)c2=O)CC1	4.35
CC1=C(C(=O)Nc2ccccc2)C(c2ccco2)C(C#N)=C(SCC(=O)Nc2ccc(C)cc2C)N1 (centres unmarked)	1.57
Cn1cc(C(=O)NC2C3CC4CC(C3)CC2C4)cn1 (centres unmarked)	3.24
Cn1nnnc1SCCNCc1ccc(-c2ccccc2F)o1	-1.71
Cc1cccc(C)c1OCc1nnc(CCc2ccccc2)o1	-7.15
O=C(c1cccc(F)c1)N1CCN(C(=O)c2cc(-c3ccc(F)cc3)no2)CC1	2.46
COc1ccc(C2C(C#N)=C(N)N(c3ccc(F)cc3)C3=C2C(=O)CC(C)(C)C3)cc1O (centres unmarked)	0.76
CC1(C(=O)Nc2nc3ccccc3s2)CC1(Br)Br (centres unmarked)	5.7
CC12CN3CC(C)(CN(C1)C3c1cn(Cc3ccccc3)c3ccccc13)C2O (centres unmarked)	-8.95
CCNC(=O)C(=O)NCc1ccccn1	3.82
Cc1cccc(-c2cc(C(=O)NCc3ccncc3)c3ccccc3n2)c1	-3.18
O=C(Cc1ccccc1Cl)N1CCC(c2nc(O)c3nnn(Cc4cccs4)c3n2)CC1	-2.92

Compound	% Inhibition @ 10 uM [%]
CCCCc1[nH]nc2c1C1(CCN(C(=O)OC(C)(C)C)CC1)C(C#N)=C(N)O2	2.01
COc1ccc(C(=O)Nc2ccc(-c3nc4cc(Cl)ccc4o3)c(O)c2)cc1OC	1.92
COC(=O)c1ccc(C(c2c(C)n(C)n(-c3ccccc3)c2=O)c2c(C)n(C)n(-c3ccccc3)c2=O)cc1	5.29
Cc1nn(C(C)C(=O)NCCCN(C)Cc2ccccc2)c(=O)c2nn(-c3ccccc3)c(C)c12 (centres unmarked)	-1.05
O=C(Nc1c(C(=O)N2CCCCC2)cnn1-c1ccccc1)c1ccccc1	-3.05
O=C(O)C1CSC(c2ccc(OCc3ccc(F)cc3)cc2)N1 (centres unmarked)	1.64
CC1(C)CNC(=O)c2sc(NC(=O)c3ccccc3Cl)nc2C1	1.62
O=C(c1ccc(Cn2cc(Cl)cn2)o1)N1N=C(C(F)F)CC1(O)C(F)F (centres unmarked)	-0.105
Cc1cccn2c(=O)c(/C=C(\C#N)C(=O)NCCc3ccccc3)c(Oc3ccccc3)nc12	-5.1
O=C(CN1CCN(c2ccccc2)CC1)Nc1ccc(Br)cc1	-6.47
Cn1nc(-c2ccccc2F)c2cc(C(=O)NC3CCN(Cc4ccccc4)CC3)sc21	-3.23
CCN(Cc1ccccc1)C(=O)Cn1cnc2c1c(=O)n(C)c(=O)n2C	-5.15
O=C(NCc1ccc(Cl)cc1)c1cc2c(s1)CSC2	0.44
COc1ccc2ccccc2c1CN1CC2(C)CC1CC(C)(C)C2 (centres unmarked)	3.48
Cc1ccc(CN2C(=O)c3oc4ccccc4c(=O)c3C2c2ccc(O)cc2)cc1 (centres unmarked)	-1.33
CC(=O)N(CCN(C(C)=O)c1ccccc1)c1ccccc1	-7.1
O=C(CSc1nc2nncc-2c(O)n1-c1ccc(Cl)cc1)NCc1cccs1	3.04
COc1ccc(C2NC(C(=O)O)CS2)cc1CN1CCOCC1 (centres unmarked)	0.408
Cn1c(=O)[nH]c(=O)c2c1nc(N=Nc1c(O)[nH]c3ccccc13)n2CC(O)COc1ccccc1 (centres unmarked)	4.95
SC1N=C(c2ccccc2)C=C(c2ccccc2)N1 (centres unmarked)	-3.69
COC(=O)c1oc2ccccc2c1O	46
CN(C)c1ccc(C(O)(c2ccc(N(C)C)cc2)C2CN3CCC2CC3)cc1 (centres unmarked)	1.7
O=C(CCCc1nc(-c2ccccc2Cl)no1)NCc1ccco1	-4.75
COC(=O)c1cc(=O)c2ccc(OC)cc2o1	2.22
COc1cccc2cc(-c3nc(-c4cccnc4)no3)c(=O)oc12	2.46

Compound	% Inhibition @ 10 uM [%]
COc1ccc(Cl)cc1-c1noc(COc2ccccc2)n1	2.62
O=C(O)COc1ccccc1/C=C1\SC(=O)N(Cc2ccc(F)cc2)C1=O	-3.09
COC(=O)c1ccc(C2SCC(=O)N2c2nc3ccccc3s2)cc1 (centres unmarked)	1.91
Cc1c(C)n(C)c2ccc(C(=O)Nc3cccc(Cl)c3)cc12	-1.28
COc1cc2c(cc1OC)C(c1ccccc1OC(C)C)CC(=O)N2 (centres unmarked)	2.45
O=C(OCc1ccccn1)c1ccc(COc2cccc3ccccc23)cc1	0.413
CC(C)(C)c1ccc(S(=O)(=O)NCC(=O)Nc2sc3c(c2C#N)CCC3)cc1	-2.77
CCn1c(C)c(CCC(=O)NCCCN2CCCC2=O)c(=O)n2nc(-c3ccccc3OC)cc12	-8.02
C=CCc1ccccc1OCCOc1c(Cl)cc(/C=C2/C(=N)N3OC(C)=CC3=NC2=O)cc1OC	5.21
COc1ccc(C(=O)Nc2ccc(S(=O)(=O)NC(C)=O)cc2)cc1OC	-5.85
CSc1nc(C)cc(OCC(=O)N2CCOCC2)n1	-7.71
Cc1nc2sccn2c(=O)c1S(=O)(=O)NCc1ccccc1Cl	-3.44
O=c1c2cn[nH]c2[nH]c(=S)n1-c1cccc2ccccc12	31.4
CC1(C)CC(=O)C2=C(C1)c1c(ccc3ccccc13)NC2c1ccc(O)cc1 (centres unmarked)	13.8
Cc1ccc(N2C(=O)c3ccc(C(=O)O)cc3C2=O)cc1Cl	-1.95
CS(=O)(=O)N(CC(=O)Nc1cccc(C(F)(F)F)c1)c1ccc(Cl)cc1	-7.2
CC1CN(S(=O)(=O)c2ccc(-n3cnnn3)cc2)CC(C)O1 (centres unmarked)	5.43
Cc1cc(Br)cc2c1[nH]c1nc3ccccc3nc12	-0.403
O=C(Nc1ccc(Oc2ccccc2)cc1)C1CCCO1 (centres unmarked)	0.812
O=C(CSc1nnc2c(n1)[nH]c1ccccc12)Nc1nccs1	-10.6
C/C(=N\C1CC(C)(C)NC(C)(C)C1)c1c(C(F)(F)F)nn(-c2nc3ccccc3s2)c1O	2.94
Cc1nn(CCCC(=O)NC2CCN(Cc3ccccc3)CC2)c(=O)c2c1sc1ccccc12	-5.1
Cc1nn(Cc2noc(C(=O)NCC(O)c3ccccc3)n2)c(C)c1Br (centres unmarked)	7.16
COc1ccc(-c2c(O)c(C#N)c(-c3ccccc3)n(-c3ccc(OC)cc3)c2=O)cc1	-0.25
CCOc1ccccc1N(CC(=O)N1CCN(c2ccccc2)CC1)S(C)(=O)=O	-0.496

Compound	% Inhibition @ 10 uM [%]
COc1cccc(OC)c1C(=O)Nc1cc(Cl)cc(Cl)c1	0.273
COc1cc(NC(=O)C2CC(=O)N(c3ccc(F)cc3)C2)ccc1Br (centres unmarked)	-1.22
CC1CCCCN1S(=O)(=O)c1ccc(C(=O)Nc2cccc(Cl)c2)cc1 (centres unmarked)	0.992
CCO/C(O)=C1/C(C)=Nc2ncnn2C1c1ccccc1OCC (centres unmarked)	0.0842
CCOC(=O)c1c(NC(=O)c2cccnc2)sc2c1CCC(C(C)(C)C)C2 (centres unmarked)	-5.08
NC1C2CN3CCN(C2)CC1(Cc1ccccc1)C3 (centres unmarked)	-5.46
COc1cc(NS(=O)(=O)c2ccc(NC(=O)c3ccccc3C)cc2)nc(OC)n1	1.72
Cc1cc(O)nc(SCC(=O)Nc2cc(Cl)ccc2C)n1	5.84
Cc1cccc(NC(=O)CSc2nc(-c3cccs3)cc(C(F)(F)F)c2C#N)n1	18.3
COc1ccccc1C(=O)Nc1c(C)nn(Cc2ccc(C)cc2)c1C	-10.5
O=C(CCc1nnc2n(Cc3ccccc3)c(=O)c3ccccc3n12)N1CCN(c2ccccn2)CC1	-0.692
O=c1c2nnn(Cc3ccccc3F)c2ncn1Cc1cccc(F)c1	-7.71
Cc1nc(NC(=O)c2cccc(OC(C)C)c2)ccc1Br	3.81
COc1ccccc1CN1C(=O)c2cccc(N)c2C1=O	-1.57
CCn1ncc(C(=O)Nc2ccc(C)cc2C)c1C	2.79
Cc1cc(C)n(-c2cc(-c3ccccc3)nc(-c3ccccc3)n2)n1	-2.35
COc1cc(S(=O)(=O)N2CCCCC2)ccc1/N=C/c1c(C)nn(-c2ccc(C)c(C)c2)c1O	1.02
CC(C)C(=O)Nc1scc(-c2ccccc2)c1C(=O)O	-3.98
COc1ccc(OC)c(NC(=O)c2ccc(CSc3ncnc4[nH]cnc34)cc2)c1	2.5
Cc1ccc(CN2CCCC(O)C2)c(C)c1 (centres unmarked)	-1.93
O=C(CCCOc1ccc(Cl)cc1Cl)NC1CCCC1	0.815
O=C(CCCn1c(=O)c2cccn2c2cccnc21)NC1CCN(Cc2ccccc2)CC1	2.03
Cc1ccc(CCNC(=O)c2nnc(-c3cccnc3)o2)cc1	3.5
